According to patent US7592316B2, “Peptides as NS3-serine protease inhibitors of hepatitis C virus” (Schering Corporation, priority 2000, dated 2009):

The compounds below were run against HCV NS3/NS4A protease (strain 1a) (Hepatitis C virus genotype 1a, UniProt P27958) (assay: biochemical). Details: Table 5; HCV NS3/NS4A protease, 30° C., pH 6.5; read-out: Ki* Range.

SMILES	Ki [nM]
C=CCCC(NC(=O)[C@@H]1[C@@H]2[C@H](CN1C(=O)[C@@H](NC(=O)OC(C)(C)C)C1CCCCC1)C2(C)C)C(=O)C(=O)NCC(=O)OC(C)(C)Cc1ccccc1 (stereo partly shown)	101 to 1000
C=CCCC(NC(=O)[C@@H]1[C@@H]2[C@H](CN1C(=O)[C@@H](NC(=O)OC(C)(C)C)C1CCCCC1)C2(C)C)C(=O)C(=O)NCCC(=O)OC(C)(C)CC (stereo partly shown)	1 to 100
C=CCCC(NC(=O)[C@@H]1[C@@H]2[C@H](CN1C(=O)[C@@H](NC(=O)NC13CC4CC(CC(C4)C1)C3)C1CCCCC1)C2(C)C)C(=O)C(=O)NCC(=O)N(C)Cc1ccccc1 (stereo partly shown)	101 to 1000
C=CCCC(NC(=O)[C@@H]1[C@@H]2[C@H](CN1C(=O)[C@@H](NC(=O)NC13CC4CC(CC(C4)C1)C3)C1CCCCC1)C2(C)C)C(=O)C(=O)NCC(=O)N(Cc1ccccc1)Cc1ccccc1 (stereo partly shown)	> 1000
C=CCNC(=O)C(=O)C(CCC)NC(=O)[C@@H]1[C@@H]2[C@H](CN1C(=O)C(NC(=O)OC1C3(C)CCC(C3)C1(C)C)C1CCCCC1)C2(C)C (stereo partly shown)	1 to 100
CCCC(NC(=O)[C@@H]1[C@H]2[C@@H](CN1C(=O)[C@@H](NC(=O)NC(C)(C)C)C(C)(C)C)C2(Cl)Cl)C(=O)C(=O)NCC(=O)NCc1ccccc1 (stereo partly shown)	1 to 100
C=CCC(NC(=O)[C@@H]1[C@@H]2[C@H](CN1C(=O)[C@@H](NC(=O)OC(C)(C)C)C1CCCCC1)C2(C)C)C(=O)C(=O)NCCS(=O)(=O)C(C)(C)C (stereo partly shown)	101 to 1000
C=CCNC(=O)C(=O)C(CCC)NC(=O)[C@@H]1[C@@H]2[C@H](CN1C(=O)[C@@H](NC(=O)NC(C)(C)C)C(C)C)C2(C)C (stereo partly shown)	101 to 1000
C#CC(C)(C)OC(=O)CCNC(=O)C(=O)C(CCC=C)NC(=O)[C@@H]1[C@@H]2[C@H](CN1C(=O)[C@@H](NC(=O)OC(C)(C)C)C(C)(C)C)C2(C)C (stereo partly shown)	101 to 1000
CCCC(NC(=O)[C@@H]1[C@@H]2[C@H](CN1C(=O)[C@@H](NC(=O)OC(C)(C)C)C1CCCCC1)C2(C)C)C(=O)C(=O)NCCS(=O)(=O)C(C)(C)C (stereo partly shown)	> 1000
CNC(=O)C(=O)C(CC(F)(F)F)NC(=O)[C@@H]1[C@@H]2[C@H](CN1C(=O)[C@@H](NC(=O)OC(C)(C)C)C1CCCCC1)C2(C)C (stereo partly shown)	1 to 100
CC(C)(C)OC(=O)N[C@H](C(=O)N1C[C@H]2[C@@H]([C@H]1C(=O)NC(CC(F)(F)F)C(=O)C(=O)NCCS(=O)(=O)C(C)(C)C)C2(C)C)C1CCCCC1 (stereo partly shown)	101 to 1000
C=CCCC(NC(=O)[C@@H]1[C@H]2[C@@H](CN1C(=O)C(NC(=O)NC(C)(C)C)C1CCCCC1)C2(Cl)Cl)C(=O)C(=O)NCC=C (stereo partly shown)	1 to 100
C=CCCC(NC(=O)[C@@H]1[C@H]2[C@@H](CN1C(=O)C(NC(=O)NC1CC3CCC1C3)C1CCCCC1)C2(Cl)Cl)C(=O)C(=O)NCC=C (stereo partly shown)	> 1000
C=CCC(NC(=O)[C@@H]1[C@@H]2[C@H](CN1C(=O)[C@@H](NC(=O)OC(C)(C)C)C1Cc3ccccc3C1)C2(C)C)C(=O)C(=O)NCC(=O)NCc1ccccc1 (stereo partly shown)	1 to 100
CCCC(NC(=O)[C@@H]1[C@@H]2[C@H](CN1C(=O)[C@@H](NC(=O)OC(C)(C)C)C1Cc3ccccc3C1)C2(C)C)C(=O)C(=O)NC (stereo partly shown)	1 to 100
C=CCCC(NC(=O)[C@@H]1[C@@H]2[C@H](CN1C(=O)[C@@H](NC(=O)NC13CC4CC(CC(C4)C1)C3)C1CCCCC1)C2(C)C)C(=O)C(=O)NCC(=O)OC(C)(C)c1ccccc1 (stereo partly shown)	1 to 100
C=CCCC(NC(=O)[C@@H]1[C@H]2[C@@H](CN1C(=O)C(NC(=O)NC(C)(C)CC(C)(C)C)C1CCCCC1)C2(Cl)Cl)C(=O)C(=O)NCC=C (stereo partly shown)	101 to 1000
CCCC(NC(=O)[C@@H]1[C@@H]2[C@H](CN1C(=O)[C@@H](NC(=O)OC(C)(C)C)C(C)(C)C)C2(Cl)Cl)C(=O)C(=O)NCC(=O)NCc1ccccc1 (stereo partly shown)	1 to 100
C=CCCC(NC(=O)[C@@H]1[C@H]2[C@@H](CN1C(=O)[C@@H](NC(=O)OC(C)(C)C)C1CCCCC1)C2(C)C)C(=O)C(=O)NCCC(=O)OC(C)(C)C=C (stereo partly shown)	1 to 100
C=CCCC(NC(=O)[C@@H]1[C@H]2[C@@H](CN1C(=O)[C@@H](NC(=O)NC(C)(C)C)C1CCCCC1)C2(C)C)C(=O)C(=O)NCCS(=O)(=O)C(C)(C)C (stereo partly shown)	1 to 100
C=CCNC(=O)C(=O)C(CCC)NC(=O)[C@@H]1[C@H]2[C@@H](CN1C(=O)C(NC(=O)OC(C)(C)C)C1CCCCC1)C2(Cl)Cl (stereo partly shown)	1 to 100
C=CCC[C@H](NC(=O)[C@@H]1[C@H]2[C@@H](CN1C(=O)C(NC(=O)OC(C)(C)C)C1Cc3ccccc3C1)C2(Cl)Cl)C(=O)C(=O)NCCC(=O)NC(C)(C)C (stereo partly shown)	1 to 100
CCCC(NC(=O)[C@@H]1C2C(CN1C(=O)C(NC(=O)OC(C)(C)C)C1Cc3ccccc3C1)C2(Cl)Cl)C(=O)C(=O)NCC(=O)NCc1ccccc1 (stereo partly shown)	1 to 100
C=CCCC(NC(=O)[C@@H]1C2C(CN1C(=O)C(NC(=O)OC(C)(C)C)C(C)(C)C)C2(C)C)C(=O)C(=O)NCCS(=O)(=O)C(C)(C)C (stereo partly shown)	101 to 1000

SMILES	Ki [nM]
C=CCCC(NC(=O)[C@@H]1[C@@H]2[C@H](CN1C(=O)[C@@H](NC(=O)NC(C)(C)C)C1CCCCC1)C2(C)C)C(=O)C(=O)NCCS(=O)(=O)C1CCCC1 (stereo partly shown)	1 to 100
C=CCNC(=O)C(=O)C(CCC)NC(=O)[C@@H]1C2C(CN1C(=O)[C@@H](NC(=O)O[C@@H]1CCC[C@@H]1C)C1Cc3ccccc3C1)C2(C)C (stereo partly shown)	1 to 100
CCCC(NC(=O)[C@@H]1[C@@H]2[C@H](CN1C(=O)[C@@H](NC(=O)OC(C)(C)C)C1CCCCC1)C2(C)C)C(=O)C(=O)NCC(=O)NCc1ccccc1 (stereo partly shown)	1 to 100
CCCC(NC(=O)[C@@H]1[C@@H]2[C@H](CN1C(=O)[C@@H](NC(=O)OC(C)(C)C)C(C)(C)C)C2(C)C)C(=O)C(=O)NCC(=O)NCc1ccccc1 (stereo partly shown)	1 to 100
CCCC(NC(=O)[C@@H]1C2C(CN1C(=O)[C@@H](NC(=O)OC(C)(C)C)C1CCCC1)C2(C)C)C(=O)C(=O)NCC(=O)NCc1ccccc1 (stereo partly shown)	1 to 100
CCCC(NC(=O)[C@@H]1[C@@H]2[C@H](CN1C(=O)[C@@H](NC(=O)OC(C)(C)C)C(C)(C)C)C2(C)C)C(=O)C(=O)NCCS(C)(=O)=O (stereo partly shown)	> 1000
CCCC(NC(=O)[C@@H]1[C@@H]2[C@H](CN1C(=O)[C@@H](NC(=O)OC(C)(C)C)C(C)(C)C)C2(C)C)C(=O)C(=O)NCCS(=O)(=O)c1ccccc1 (stereo partly shown)	101 to 1000
CCCC(NC(=O)[C@@H]1[C@@H]2[C@H](CN1C(=O)[C@@H](NC(=O)NC(C)(C)C)C(C)(C)C)C2(C)C)C(=O)C(=O)NCC(=O)NCc1ccccc1 (stereo partly shown)	1 to 100
C=CCCC(NC(=O)[C@@H]1C2C(CN1C(=O)[C@@H](NC(=O)OC(C)(C)C)C1CCCCC1)C2(Cl)Cl)C(=O)C(=O)NCCC(=O)OC(C)(C)C (stereo partly shown)	1 to 100
C=CCCC(NC(=O)[C@@H]1C2C(CN1C(=O)[C@@H](NC(=O)NC(C)(C)C)C1CCCCC1)C2(Cl)Cl)C(=O)C(=O)NCCC(=O)OC(C)(C)C (stereo partly shown)	1 to 100
C=CCCC(NC(=O)[C@@H]1[C@H]2[C@H](CN1C(=O)[C@@H](NC(=O)OC(C)(C)C)C(C)(C)C)C2(Cl)Cl)C(=O)C(=O)NCC=C (stereo partly shown)	101 to 1000
C=CCCC(NC(=O)[C@@H]1C2C(CN1C(=O)[C@@H](NC(=O)NC(C)(C)C)C1CCCCC1)C2(C)C)C(=O)C(=O)NCCS(C)(=O)=O (stereo partly shown)	1 to 100
C=CCCC(NC(=O)[C@@H]1C2C(CN1C(=O)[C@@H](NC(=O)NC(C)(C)C)C1CCCCC1)C2(C)C)C(=O)C(=O)NCCC(=O)C(C)C (stereo partly shown)	1 to 100
C=CCCC(NC(=O)[C@@H]1C2[C@@H](CN1C(=O)[C@@H](NC(=O)OC(C)(C)C)C(C)(C)C)C2(C)C)C(=O)C(=O)NCCC(=O)OC(C)(C)c1ccccc1 (stereo partly shown)	1 to 100
C=CCNC(=O)C(=O)C(CCC)NC(=O)[C@@H]1C2C(CN1C(=O)[C@@H](NC(=O)OC1CCCC1C)C1Cc3ccccc3C1)C2(C)C (stereo partly shown)	1 to 100
C=CCNC(=O)C(=O)C(CCC)NC(=O)[C@@H]1C2C(CN1C(=O)[C@@H](NC(=O)N(C)C(C)(C)C)C1Cc3ccccc3C1)C2(C)C (stereo partly shown)	101 to 1000
C=CCCC(NC(=O)[C@@H]1[C@@H]2[C@H](CN1C(=O)[C@@H](NC(=O)NC(C)(C)C)C1CCCCC1)C2(C)C)C(=O)C(=O)NCCCS(C)(=O)=O (stereo partly shown)	101 to 1000
C=CCCC(NC(=O)[C@@H]1[C@@H]2[C@H](CN1C(=O)[C@@H](NC(=O)NC(C)(C)C)C1CCCCC1)C2(C)C)C(=O)C(=O)NCCS(=O)(=O)Cc1ccccc1 (stereo partly shown)	1 to 100
C=CCNC(=O)C(=O)C(CCC)NC(=O)[C@@H]1[C@@H]2[C@H](CN1C(=O)[C@@H](NC(=O)OC1CCC(C)C1)C(C)(C)C)C2(C)C (stereo partly shown)	101 to 1000
C=CCNC(=O)C(=O)C(CCC)NC(=O)[C@@H]1[C@@H]2[C@H](CN1C(=O)[C@@H](NC(=O)OC1CC[C@@H](C)C1)C(C)(C)C)C2(C)C (stereo partly shown)	101 to 1000
CC(C)(C)OC(=O)N[C@H](C(=O)N1C[C@H]2[C@@H]([C@H]1C(=O)NC(CC(F)(F)F)C(=O)C(=O)NCc1ccccc1)C2(C)C)C1Cc2ccccc2C1 (stereo partly shown)	101 to 1000
CNC(=O)C(=O)C(CC1CC1)NC(=O)[C@@H]1[C@@H]2[C@H](CN1C(=O)[C@@H](NC(=O)OCC(C)C)C1Cc3ccccc3C1)C2(C)C (stereo partly shown)	1 to 100
CNC(=O)C(=O)C(CC1CC1)NC(=O)[C@@H]1[C@@H]2[C@H](CN1C(=O)[C@@H](NC(=O)O[C@H]1CCC[C@@H]1C)C1Cc3ccccc3C1)C2(C)C (stereo partly shown)	1 to 100
CC(C)(C)OC(=O)N[C@H](C(=O)N1C[C@H]2[C@@H]([C@H]1C(=O)NC(CC1CC1)C(=O)C(=O)NCC(=O)NCc1ccccc1)C2(C)C)C(C)(C)C (stereo partly shown)	1 to 100
CCCC(NC(=O)[C@@H]1[C@@H]2[C@H](CN1C(=O)[C@@H](NC(=O)OC1CCCC1C)C(C)(C)C)C2(C)C)C(=O)C(=O)NCC(=O)NCc1ccccc1 (stereo partly shown)	1 to 100

Same assay, conditions: Table 5; HCV NS3/NS4A protease, spectrophotometric assay, 30° C., pH 6.5; read-out: Ki* Range

SMILES	Ki [nM]
C=CCNC(=O)C(=O)C(CCC)NC(=O)[C@@H]1[C@@H]2[C@H](CN1C(=O)[C@@H](NC(=O)O[C@@H](C)C(C)C)C1CCCCC1)C2(C)C (stereo partly shown)	101 to 1000
C=CCNC(=O)C(=O)C(CCC)NC(=O)[C@@H]1[C@@H]2[C@H](CN1C(=O)[C@@H](NC(=O)OCC1CC1)C1CCCCC1)C2(C)C (stereo partly shown)	101 to 1000
